This note sets out measurements from patent US20020164333A1 (Scripps Research, published 2002).

For this assay, the target named is T1, Recombinant Ad2 penton base (adenovirus type 2 (Ad2), UniProt P03276).
T1 construct: also called penton base protein
Kind of assay: ELISA, immobilized penton base. In general terms: An ELISA detects its analyte on a solid surface through an enzyme-linked reagent.

B1: DT bifunctional signaling antibody (DAV-1 fused to TNF-alpha) (bispecific antibody)
heavy: EVQLQQSGPELVKPGASVKISCKASGYTFTDYNMHWVKQSHGKSLEWIGYIYPYKGGTGYNQKFKSKATLTTDSSSNTAYMELRSLTSDASAVYYCARGIAYWGQGTLVTVSAAKTTPPSVYPLAPGSAAQTNSMVTLGCLVKGYFPEPVTVTWNSGSLSSGVHTFPAVLQSDLYTLSSSVTVPSSTWPSETVTCNVAHPASSTKVDKKIVPRDCGCKPCICTVPEVSSVFIFPPKPKDVLTITLTPKVTCVVVDISKDDPEVQFSWFVDDVEVHTAQTQPREEQFNSTFRSVSELPIMHQDWLNGKEFKCRVNSAAFPAPIEKTISKTKGRPKAPQVYTIPPPKEQMAKDKVSLTCMITDFFPEDITVEWQWNGQPAENYKNTQPIMDTDGSYFVYSKLNVQKSNWEAGNTFICSVLHEF[skipping about 150 residues]
light: DIVLTQSPASLAVSLGQRATISCKASQSVDYDGDSYMNWYQQKPGQPPKLLIYAASNLESGIPARFSGSGSGTDFTLNIHPVEEEDAATYYCQQTNEDPWTFGGGTKLEIKRADAAPTVSIFPPSSEQLTSGGASVVCFLNNFYPKDINVKWKIDGSERQNGVLNSWTDQDSKDSTYSMSSTLTLTKDEYERHNSYTCEATHKTSTSPIVKSFNRNEC
notes: Secreted from SF9 insect cells and purified on Protein L; also called DT molecule; DAV-TNF
Take B1: the binding result was “binds”.
